# Substitutions are numbered along the chain they refer to; changes in the protein carry UniProt numbers. Some of the results follow.
# T1: RBFOX1 RRM RbFoxmut (Fox-RRM*) (Homo sapiens, UniProt Q9NWB1 109-208, R118D;E147R;N151S;E152T)
# T1 sequence: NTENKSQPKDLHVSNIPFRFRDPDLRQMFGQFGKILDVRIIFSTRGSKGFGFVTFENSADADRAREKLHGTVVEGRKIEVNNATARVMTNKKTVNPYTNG
# B1: CACCAAA (DNA:RNA)
# RNA: GGGAGACCGGAAUUCAGAUUGUCCCACCAAAUUAAAUCCCGUCGUAGCCACCA
# DNA 1: CAATCTGAATTCCGGTCTCCC
# DNA 2: TGGTGGCTACGACGGGATT
# B2: UUUAUCA (DNA:RNA)
# RNA: B1 RNA with C25U, A26U, C27U, C28A, A29U, A30C
# DNA 1: CAATCTGAATTCCGGTCTCCC
# DNA 2: TGGTGGCTACGACGGGATT
# B3: UCUGUGG (DNA:RNA)
# RNA: GGGAGACCGGAAUUCAGAUUGUCCUCUGUGGUUAAAUCCCGUCGUAGCCACCA
# DNA 1: CAATCTGAATTCCGGTCTCCC
# DNA 2: TGGTGGCTACGACGGGATT
# B4: GCAAUAG (DNA:RNA)
# RNA: B3 RNA with U25G, U27A, G28A, G30A
# DNA 1: CAATCTGAATTCCGGTCTCCC
# DNA 2: TGGTGGCTACGACGGGATT
# B5: AUAUUGG (DNA:RNA)
# RNA: B3 RNA with U25A, C26U, U27A, G28U
# DNA 1: CAATCTGAATTCCGGTCTCCC
# DNA 2: TGGTGGCTACGACGGGATT
# B6: UUCUCAU (DNA:RNA)
# RNA: B1 RNA with C25U, A26U, C28U, A29C, A31U
# DNA 1: CAATCTGAATTCCGGTCTCCC
# DNA 2: TGGTGGCTACGACGGGATT
# B7: CACAUAG (DNA:RNA)
# RNA: B1 RNA with C28A, A29U, A31G
# DNA 1: CAATCTGAATTCCGGTCTCCC
# DNA 2: TGGTGGCTACGACGGGATT
# B8: UAAAGCC (DNA:RNA)
# RNA: B1 RNA with C25U, C27A, C28A, A29G, A30C, A31C
# DNA 1: CAATCTGAATTCCGGTCTCCC
# DNA 2: TGGTGGCTACGACGGGATT
# B9: GAGUUAG (DNA:RNA)
# RNA: B1 RNA with C25G, C27G, C28U, A29U, A31G
# DNA 1: CAATCTGAATTCCGGTCTCCC
# DNA 2: TGGTGGCTACGACGGGATT
# B10: GGAUGGC (DNA:RNA)
# RNA: B3 RNA with U25G, C26G, U27A, G28U, U29G, G31C
# DNA 1: CAATCTGAATTCCGGTCTCCC
# DNA 2: TGGTGGCTACGACGGGATT
# B11: UUAUGAC (DNA:RNA)
# RNA: B1 RNA with C25U, A26U, C27A, C28U, A29G, A31C
# DNA 1: CAATCTGAATTCCGGTCTCCC
# DNA 2: TGGTGGCTACGACGGGATT
# B12: GAAACAG (DNA:RNA)
# RNA: B1 RNA with C25G, C27A, C28A, A29C, A31G
# DNA 1: CAATCTGAATTCCGGTCTCCC
# DNA 2: TGGTGGCTACGACGGGATT
# B13: GUAGCGA (DNA:RNA)
# RNA: B3 RNA with U25G, C26U, U27A, U29C, G31A
# DNA 1: CAATCTGAATTCCGGTCTCCC
# DNA 2: TGGTGGCTACGACGGGATT
# B14: ACCUAAC (DNA:RNA)
# RNA: B1 RNA with C25A, A26C, C28U, A31C
# DNA 1: CAATCTGAATTCCGGTCTCCC
# DNA 2: TGGTGGCTACGACGGGATT
# B15: UGUACGC (DNA:RNA)
# RNA: B3 RNA with C26G, G28A, U29C, G31C
# DNA 1: CAATCTGAATTCCGGTCTCCC
# DNA 2: TGGTGGCTACGACGGGATT
# B16: ACUAACU (DNA:RNA)
# RNA: B3 RNA with U25A, G28A, U29A, G30C, G31U
# DNA 1: CAATCTGAATTCCGGTCTCCC
# DNA 2: TGGTGGCTACGACGGGATT
# B17: AUCUAGG (DNA:RNA)
# RNA: B1 RNA with C25A, A26U, C28U, A30G, A31G
# DNA 1: CAATCTGAATTCCGGTCTCCC
# DNA 2: TGGTGGCTACGACGGGATT
# B18: UCUCUGC (DNA:RNA)
# RNA: B3 RNA with G28C, G31C
# DNA 1: CAATCTGAATTCCGGTCTCCC
# DNA 2: TGGTGGCTACGACGGGATT
# B19: UAUUCAA (DNA:RNA)
# RNA: B1 RNA with C25U, C27U, C28U, A29C
# DNA 1: CAATCTGAATTCCGGTCTCCC
# DNA 2: TGGTGGCTACGACGGGATT
# B20: CAUCUAU (DNA:RNA)
# RNA: B1 RNA with C27U, A29U, A31U
# DNA 1: CAATCTGAATTCCGGTCTCCC
# DNA 2: TGGTGGCTACGACGGGATT
# B21: AGGUCCC (DNA:RNA)
# RNA: GGGAGACCGGAAUUCAGAUUGUCCAGGUCCCUUAAAUCCCGUCGUAGCCACCA
# DNA 1: CAATCTGAATTCCGGTCTCCC
# DNA 2: TGGTGGCTACGACGGGATT
# B22: CUGAUCA (DNA:RNA)
# RNA: B21 RNA with A25C, G26U, U28A, C29U, C31A
# DNA 1: CAATCTGAATTCCGGTCTCCC
# DNA 2: TGGTGGCTACGACGGGATT
# B23: UUCCUAA (DNA:RNA)
# RNA: B1 RNA with C25U, A26U, A29U
# DNA 1: CAATCTGAATTCCGGTCTCCC
# DNA 2: TGGTGGCTACGACGGGATT
# B24: UUGAAUU (DNA:RNA)
# RNA: B21 RNA with A25U, G26U, U28A, C29A, C30U, C31U
# DNA 1: CAATCTGAATTCCGGTCTCCC
# DNA 2: TGGTGGCTACGACGGGATT
# B25: GCAUGCG (DNA:RNA)
# RNA: B21 RNA with A25G, G26C, G27A, C29G, C31G
# DNA 1: CAATCTGAATTCCGGTCTCCC
# DNA 2: TGGTGGCTACGACGGGATT
# B26: AACUACA (DNA:RNA)
# RNA: B1 RNA with C25A, C28U, A30C
# DNA 1: CAATCTGAATTCCGGTCTCCC
# DNA 2: TGGTGGCTACGACGGGATT
# B27: GGCUUGC (DNA:RNA)
# RNA: B21 RNA with A25G, G27C, C29U, C30G
# DNA 1: CAATCTGAATTCCGGTCTCCC
# DNA 2: TGGTGGCTACGACGGGATT
# B28: ACAUCGC (DNA:RNA)
# RNA: B21 RNA with G26C, G27A, C30G
# DNA 1: CAATCTGAATTCCGGTCTCCC
# DNA 2: TGGTGGCTACGACGGGATT
# B29: UUGUUAA (DNA:RNA)
# RNA: B21 RNA with A25U, G26U, C29U, C30A, C31A
# DNA 1: CAATCTGAATTCCGGTCTCCC
# DNA 2: TGGTGGCTACGACGGGATT
# B30: AGCCACG (DNA:RNA)
# RNA: B21 RNA with G27C, U28C, C29A, C31G
# DNA 1: CAATCTGAATTCCGGTCTCCC
# DNA 2: TGGTGGCTACGACGGGATT
# B31: CUUUAAU (DNA:RNA)
# RNA: B1 RNA with A26U, C27U, C28U, A31U
# DNA 1: CAATCTGAATTCCGGTCTCCC
# DNA 2: TGGTGGCTACGACGGGATT
# Target: T1, RBFOX1 RRM RbFoxmut (Fox-RRM*)
# Assay: EMSA; HiTS-Eq, 1 nM pool, 10 min; buffer printed only for the single-RNA assays: 10 mM Tris pH 7.5, 150 mM NaCl, 3.4 mM EDTA, 0.001% NP-40, 30 C
# Settings: tags: His6 N-terminal (pET28a); label: 5' 32P
# In short: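 These values rest on relative association constants, computed from read-count changes of each RNA species versus the control reaction and normalised to the cognate motif. Reads came from free RNA recovered by 8% native PAGE after purified RbFox RRM (wild type or mutant) at increasing concentrations was equilibrated for 10 min in 50 µL with 1 nM of a 5′-radiolabelled pool with 7 randomized nucleotides and DNA-annealed flanks.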
row,Binder,binding signal
1,B1,0.104 KA relative to UGCAUGU
2,B2,0.0949 KA relative to UGCAUGU
3,B3,0.0928 KA relative to UGCAUGU
4,B4,0.0796 KA relative to UGCAUGU
5,B5,0.107 KA relative to UGCAUGU
6,B6,0.108 KA relative to UGCAUGU
7,B7,0.12 KA relative to UGCAUGU
8,B8,0.0638 KA relative to UGCAUGU
9,B9,0.111 KA relative to UGCAUGU
10,B10,0.156 KA relative to UGCAUGU
11,B11,0.0826 KA relative to UGCAUGU
12,B12,0.0918 KA relative to UGCAUGU
13,B13,0.075 KA relative to UGCAUGU
14,B14,0.0613 KA relative to UGCAUGU
15,B15,0.101 KA relative to UGCAUGU
16,B16,0.105 KA relative to UGCAUGU

row,Binder,binding signal
1,B17,0.111 KA relative to UGCAUGU
2,B18,0.0999 KA relative to UGCAUGU
3,B19,0.0869 KA relative to UGCAUGU
4,B20,0.12 KA relative to UGCAUGU
5,B21,0.0699 KA relative to UGCAUGU
6,B22,0.066 KA relative to UGCAUGU
7,B23,0.0929 KA relative to UGCAUGU
8,B24,0.104 KA relative to UGCAUGU
9,B25,0.872 KA relative to UGCAUGU
10,B26,0.121 KA relative to UGCAUGU
11,B27,0.199 KA relative to UGCAUGU
12,B28,0.107 KA relative to UGCAUGU
13,B29,0.152 KA relative to UGCAUGU
14,B30,0.0895 KA relative to UGCAUGU
15,B31,0.0766 KA relative to UGCAUGU

# From paper PMC9911399, “Two distinct binding modes provide the RNA-binding protein RbFox with extraordinary sequence specificity”
